Results taken from the supplement of paper PMC9588766.
Where a name gives a salt, the structure may show the parent alone. The full ranking holds about 1,900 compounds; the median of “cell viability of compound + 1 nM pemigatinib relative to pemigatinib-only (DMSO) wells” is about 0.95, and the lowest 2% start at about 0.22. The list shows a part of the results.

Test system: PDC-DUC18828
Assay: cell viability of compound + 1 nM pemigatinib relative to pemigatinib-only (DMSO) wells (fraction); PDC-DUC18828 is a patient-derived cholangiocarcinoma cell line; higher = less growth inhibition
Settings: first compound 1 µM; pemigatinib concentration 1 nM; 72 h
Protocol: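 Selleck Bioactive library screen in the patient-derived FGFR2 fusion-positive ICC cell line PDC-DUC18828 (500 cells/well). Each compound was tested at 1 uM with 1 nM pemigatinib, in triplicate, for 72 h. Viability was read by CellTiter-Glo and normalised to plate DMSO controls. Value is the paper's averaged normalised viability.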

Row | SMILES | cell viability
1 | CCOc1cc(CC(=O)N[C@@H](CC(C)C)c2ccccc2N2CCCCC2)ccc1C(=O)O [Repaglinide] + CCN1C(=O)N(c2c(F)c(OC)cc(OC)c2F)Cc2cnc3[nH]c(CN4CCOCC4)cc3c21 [pemigatinib] | 1.05
2 | CCOC(=O)C1=C(C)NC(C)=C(C(=O)OCC)C1c1ccccc1/C=C/C(=O)OC(C)(C)C [Lacidipine] + CCN1C(=O)N(c2c(F)c(OC)cc(OC)c2F)Cc2cnc3[nH]c(CN4CCOCC4)cc3c21 [pemigatinib] | 0.956
3 | O=S(=O)(c1ccccc1)N(CC(F)(F)F)c1ccc(C(O)(C(F)(F)F)C(F)(F)F)cc1 + CCN1C(=O)N(c2c(F)c(OC)cc(OC)c2F)Cc2cnc3[nH]c(CN4CCOCC4)cc3c21 [pemigatinib] | 0.88
4 | CC#CC(=O)Nc1ccc2ncnc(Nc3cccc(Br)c3)c2c1 + CCN1C(=O)N(c2c(F)c(OC)cc(OC)c2F)Cc2cnc3[nH]c(CN4CCOCC4)cc3c21 [pemigatinib] | 0.563
5 | O=C(O)c1ccc(N2C(=O)/C(=C\c3ccc(-c4ccc([N+](=O)[O-])cc4)o3)C=C2c2ccccc2)cc1 + CCN1C(=O)N(c2c(F)c(OC)cc(OC)c2F)Cc2cnc3[nH]c(CN4CCOCC4)cc3c21 [pemigatinib] | 0.965
6 | COc1cc(F)c(F)c(Nc2ccc(I)cc2F)c1NS(=O)(=O)C1(C[C@H](O)CO)CC1 [Refametinib (RDEA119, Bay 86-9766)] + CCN1C(=O)N(c2c(F)c(OC)cc(OC)c2F)Cc2cnc3[nH]c(CN4CCOCC4)cc3c21 [pemigatinib] | 0.82
7 | C#C[C@]1(O)CC[C@H]2[C@@H]3CCc4cc(O)ccc4[C@H]3CC[C@@]21C [Ethinyl Estradiol] + CCN1C(=O)N(c2c(F)c(OC)cc(OC)c2F)Cc2cnc3[nH]c(CN4CCOCC4)cc3c21 [pemigatinib] | 1.03
8 | O=c1cc(-c2ccccc2)oc2cc(O)cc(O)c12 [Chrysin] + CCN1C(=O)N(c2c(F)c(OC)cc(OC)c2F)Cc2cnc3[nH]c(CN4CCOCC4)cc3c21 [pemigatinib] | 1.02
9 | COc1cc2/c(=N/c3ccc(Br)cc3F)nc[nH]c2cc1OCC1CCN(C)CC1 [Vandetanib (ZD6474)] + CCN1C(=O)N(c2c(F)c(OC)cc(OC)c2F)Cc2cnc3[nH]c(CN4CCOCC4)cc3c21 [pemigatinib] | 0.917
10 | O=C(CCCCCN1C(=O)c2cccc3cccc(c23)C1=O)NO [Scriptaid] + CCN1C(=O)N(c2c(F)c(OC)cc(OC)c2F)Cc2cnc3[nH]c(CN4CCOCC4)cc3c21 [pemigatinib] | 0.866
11 | C=C[C@@]1(C)CC(=O)[C@]2(O)[C@@]3(C)[C@@H](O)CCC(C)(C)[C@@H]3[C@H](O)[C@H](OC(C)=O)[C@@]2(C)O1 [Forskolin] + CCN1C(=O)N(c2c(F)c(OC)cc(OC)c2F)Cc2cnc3[nH]c(CN4CCOCC4)cc3c21 [pemigatinib] | 0.98
12 | CCN(CC)C(=S)SSC(=S)N(CC)CC [Disulfiram] + CCN1C(=O)N(c2c(F)c(OC)cc(OC)c2F)Cc2cnc3[nH]c(CN4CCOCC4)cc3c21 [pemigatinib] | 0.106
13 | Cc1cc(OCCCS(C)(=O)=O)cc(C)c1-c1cccc(COc2ccc3c(c2)OC[C@H]3CC(=O)O)c1 + CCN1C(=O)N(c2c(F)c(OC)cc(OC)c2F)Cc2cnc3[nH]c(CN4CCOCC4)cc3c21 [pemigatinib] | 1
14 | NCCCCCNCC12CC3CC(CC(C3)C1)C2 [IEM 1754 dihydrobroMide] + CCN1C(=O)N(c2c(F)c(OC)cc(OC)c2F)Cc2cnc3[nH]c(CN4CCOCC4)cc3c21 [pemigatinib] | 0.898
15 | CC1(C)O[C@@H]2C[C@H]3[C@@H]4CCC5=CC(=O)C=C[C@]5(C)[C@H]4[C@@H](O)C[C@]3(C)[C@]2(C(=O)CO)O1 [Desonide] + CCN1C(=O)N(c2c(F)c(OC)cc(OC)c2F)Cc2cnc3[nH]c(CN4CCOCC4)cc3c21 [pemigatinib] | 0.848
16 | O=C(O)c1ccc2c(c1)nc(Nc1cccc(Cl)c1)c1ccncc12 [CX-4945 (Silmitasertib)] + CCN1C(=O)N(c2c(F)c(OC)cc(OC)c2F)Cc2cnc3[nH]c(CN4CCOCC4)cc3c21 [pemigatinib] | 0.947
17 | O=C1NCCc2[nH]c(-c3ccncc3)cc21 + CCN1C(=O)N(c2c(F)c(OC)cc(OC)c2F)Cc2cnc3[nH]c(CN4CCOCC4)cc3c21 [pemigatinib] | 0.829
18 | Cc1ccc(NC(=O)c2cccc(N(C)C)c2)cc1NC(=O)c1ccc(O)cc1 + CCN1C(=O)N(c2c(F)c(OC)cc(OC)c2F)Cc2cnc3[nH]c(CN4CCOCC4)cc3c21 [pemigatinib] | 1.04
19 | COc1ccc(S(=O)(=O)Nc2cccnc2Nc2ccc(O)cc2)cc1 + CCN1C(=O)N(c2c(F)c(OC)cc(OC)c2F)Cc2cnc3[nH]c(CN4CCOCC4)cc3c21 [pemigatinib] | 0.423
20 | CCNC(=O)CCC/C=C\C[C@@H]1[C@@H](/C=C/[C@@H](O)CCc2ccccc2)[C@H](O)C[C@@H]1O [Bimatoprost] + CCN1C(=O)N(c2c(F)c(OC)cc(OC)c2F)Cc2cnc3[nH]c(CN4CCOCC4)cc3c21 [pemigatinib] | 1.01
21 | COC(=O)C1=C(C)NC(C)=C(C(=O)OC2CCCN(Cc3ccccc3)C2)C1c1cccc([N+](=O)[O-])c1 (centres undefined) [Benidipine HCl] + CCN1C(=O)N(c2c(F)c(OC)cc(OC)c2F)Cc2cnc3[nH]c(CN4CCOCC4)cc3c21 [pemigatinib] | 0.953
22 | O=C(CCCCCCC(=O)Nc1ccccc1)NO [Vorinostat (SAHA, MK0683)] + CCN1C(=O)N(c2c(F)c(OC)cc(OC)c2F)Cc2cnc3[nH]c(CN4CCOCC4)cc3c21 [pemigatinib] | 0.948
23 | O=C(/C=C/c1ccc(O)c(O)c1)c1ccc(O)cc1O [Butein] + CCN1C(=O)N(c2c(F)c(OC)cc(OC)c2F)Cc2cnc3[nH]c(CN4CCOCC4)cc3c21 [pemigatinib] | 0.921
24 | CC[C@H]1OC(=O)C[C@@H](O)[C@H](C)[C@@H](O[C@@H]2O[C@H](C)[C@@H](O[C@H]3C[C@@](C)(O)[C@@H](O)[C@H](C)O3)[C@H](N(C)C)[C@H]2O)[C@@H](CC=O)C[C@@H](C)C(=O)/C=C/C(C)=C/[C@@H]1CO[C@@H]1O[C@H](C)[C@@H](O)[C@@H](OC)[C@H]1OC [Tylosin tartrate] + CCN1C(=O)N(c2c(F)c(OC)cc(OC)c2F)Cc2cnc3[nH]c(CN4CCOCC4)cc3c21 [pemigatinib] | 0.933
